The campaign covered roughly 370,000 compounds. About 150 (0.041%) were called active. Inconclusive means that the source gave no clear call. Such entries were picked first, then a sample of the others. Calls come from the whole dose curve; as a rule, active = well fitted inhibition curve with a large enough effect; inconclusive = small, poorly fitted or top-dose-only effect; inactive = flat fitted curve, though single readings scatter. No potency is given beside an inconclusive call; the fits are too rough.
The compounds below were run against Beta-lactamase (Escherichia coli (strain K12)) (UniProt P00811) (assay: qHTS Inhibitors of AmpC Beta-Lactamase (assay with detergent)). Details: AmpC hydrolysis of nitrocefin, absorbance 480 nm, 0.01% Triton; activity change, negative = inhibition: at 114 µM (top of the series).
UniProt P00811, sequence (P00811 whole entry, looked up): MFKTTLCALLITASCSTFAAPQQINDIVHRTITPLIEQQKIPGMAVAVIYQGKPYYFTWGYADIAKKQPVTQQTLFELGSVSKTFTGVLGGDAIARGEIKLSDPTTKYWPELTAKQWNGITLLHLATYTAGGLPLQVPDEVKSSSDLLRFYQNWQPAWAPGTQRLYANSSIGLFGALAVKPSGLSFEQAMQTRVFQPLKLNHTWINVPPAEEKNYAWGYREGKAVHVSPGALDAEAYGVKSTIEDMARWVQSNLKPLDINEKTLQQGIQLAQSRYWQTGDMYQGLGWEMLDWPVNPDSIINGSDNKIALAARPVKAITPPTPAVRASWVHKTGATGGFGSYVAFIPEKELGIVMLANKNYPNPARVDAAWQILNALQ
How it was run: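 AmpC (5.3 nM in the dispensed reagent) in 20 mM phosphate pH 7.0 with 0.01% (detergent screen) or 0.0001% Triton X-100 was preincubated with compounds for 15 min at room temperature. Nitrocefin was then added from an 800 uM solution, and hydrolysis was followed at 480 nm.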
In the case of CCOC(=O)C1=C(C)N(CCCCCC(=O)O)C(=O)NC1c1ccc(Br)cc1 (stereo not given), the Potency was inconclusive [inhibitor, partial curve, poor fit]. In the case of O=C(OCC(=O)c1c[nH]c2ccccc12)c1cccc([N+](=O)[O-])c1, the “activity change, negative = inhibition” value was inactive: -0.0563%. For COc1ccc(NC(=O)CSc2nc3nc(C)cc(C)n3n2)cc1OC, the “activity change, negative = inhibition” value was inactive: 9.96%. Cc1cccc2c(=O)cc(CSc3ccccc3NC(=O)c3cccc(Br)c3)[nH]c12 was tested, and the “activity change, negative = inhibition” value was inactive: 24%. For O=C(/C=C/c1ccc(Cl)cc1Cl)N(Cc1ccc(Cl)cc1)C1CCS(=O)(=O)C1 (stereo not given), the Potency was inconclusive [inhibitor, single point]. In the case of COc1ccc(C2c3sc(=O)[nH]c3SC3C(=O)N(c4ccccc4)C(=O)C32)cc1 (stereo not given), the Potency was inconclusive [inhibitor, full curve]. In the case of CCOC(=O)C(=CN(CCc1ccccc1)CC(=O)OC)C(=O)OCC, the Potency was inconclusive [inhibitor, full curve]. For CCOC(=O)COc1cc(=O)n(CC)c2ccccc12, the Potency was inconclusive [inhibitor, full curve, poor fit]. For COC(=O)c1cccc(NC(=O)CN2CCOCC2)c1, the “activity change, negative = inhibition” value was inactive: -17.4%. O=C(Nc1cnn(Cc2ccccc2)c1)c1cc2nc(-c3ccco3)cc(C(F)(F)F)n2n1 was tested, and the Potency was inconclusive [inhibitor, full curve, poor fit]. For COc1ccc(CCC(C)NC2C3CC4CC(C3)CC2C4)cc1 (stereo not given), the Potency was inconclusive [inhibitor, full curve]. CC(C)(O)C1Cc2cc(/C=C/C(=O)O)c(O)cc2O1 (stereo not given) was tested, and the “activity change, negative = inhibition” value was inactive: 3.35%. CCN1CCN(c2ccc(NC(=O)c3cccc(F)c3)cc2Cl)CC1 was tested, and the “activity change, negative = inhibition” value was inactive: 2.42%. With COc1cc(NC(=O)c2cc(S(=O)(=O)N3CCC(C)CC3)cn2C)cc(OC)c1OC the “activity change, negative = inhibition” value was inactive: 19.4%. For COc1ccc(OC)c(N(CC(=O)Nc2cccnc2)S(=O)(=O)c2ccc(OC)c(OC)c2)c1, the “activity change, negative = inhibition” value was inactive: -10.3%. For CC1=C(C(=O)OC2CCCCC2)C(c2ccc(C)o2)C2=C(CCCC2=O)N1 (stereo not given), the Potency was inconclusive [inhibitor, full curve, poor fit]. With Clc1ccc(-n2ncc3c(NCC4CCCO4)ncnc32)cc1 (stereo not given) the Potency was inconclusive [inhibitor, partial curve]. For Cc1ccc(OCC(=O)N/N=C\c2cn(C)c3ccccc23)c([N+](=O)[O-])c1, the Potency was inconclusive [inhibitor, partial curve, poor fit]. For O=C(NCc1cccc(Cl)c1)c1ccc2c(Cl)c3c(nc2c1)CCCC3, the Potency was inconclusive [inhibitor, single point]. In the case of COC(=O)CCCC(=O)N1CCC(CCC(=O)NC2CC2)CC1, the Potency was inconclusive [inhibitor, partial curve, poor fit]. With CCc1nnc(NC(=O)CCC(=O)NCCc2ccc(OC)c(OC)c2)s1 the Potency was inconclusive [inhibitor, full curve, poor fit]. In the case of CN1CCOCCOCCN(C)C(=O)N2CCOCCOCCN(CCOCC2)C1=O, the Potency was inconclusive [inhibitor, single point]. N#Cc1cc2c(=O)n3ccccc3nc2n(CCN2CCOCC2)c1=O was tested, and the Potency was inconclusive [inhibitor, full curve]. CCc1ccc(NS(=O)(=O)c2ccc(NC(=O)N3CCCC3)cc2)cc1 was tested, and the “activity change, negative = inhibition” value was inactive: 2.25%. Cc1ccc(OCCN2CCN(CC(O)Cn3c4ccccc4c4ccccc43)CC2)cc1 (stereo not given) was tested, and the “activity change, negative = inhibition” value was inactive: 1.65%. With CC(C)c1nc2oc3c(=O)[nH]cnc3c2c2c1CCC2 the Potency was inconclusive [inhibitor, full curve, poor fit]. With Cc1ccc(Cl)cc1NC(=O)CON=C(N)c1ccccc1 the Potency was inconclusive [inhibitor, full curve, poor fit]. In the case of COCCn1c(=S)[nH]c2cc(C(=O)NCCCN3CCOCC3)ccc2c1=O, the Potency was inconclusive [inhibitor, partial curve, poor fit]. For CCN1C(=S)N[C@@H](CCc2ccccc2)[C@H](C(=O)OC)[C@H]1C, the Potency was inconclusive [inhibitor, partial curve, poor fit]. For O=C(Cc1c(F)cccc1Cl)NCC(=O)OCc1ccccc1, the Potency was inconclusive [inhibitor, full curve]. With CC(=O)NC1C(=O)Nc2c(C)cc(C)cc21 (stereo not given) the Potency was inconclusive [inhibitor, single point]. For Cc1noc(C)c1COC(=O)c1cc(F)c(F)cc1Cl, the Potency was inconclusive [inhibitor, partial curve, poor fit]. O=S(=O)(NCc1cccs1)c1ccccc1Cl was tested, and the Potency was inconclusive [inhibitor, single point]. With Cc1nn(Cc2ccc(F)cc2)c(Cl)c1/C=N/NC(=O)c1cccnc1 the “activity change, negative = inhibition” value was inactive: 1.15%. With Cc1csc(NC(=O)c2ccc(Cn3nc(C)c(Br)c3C)o2)n1 the “activity change, negative = inhibition” value was inactive: -7.76%. In the case of CCCCCCCC(=O)NNC(=O)c1c(O)c2ccccc2[nH]c1=O, the Potency was inconclusive [inhibitor, single point]. For CC(Oc1ccc2c(=O)c(-c3ccc(Cl)cc3)c(C(F)(F)F)oc2c1)C(=O)O (stereo not given), the “activity change, negative = inhibition” value was inactive: 3.82%. CCC(Sc1ncnc2sc3c(c12)CCCC3)C(=O)OCC(C)C (stereo not given) was tested, and the “activity change, negative = inhibition” value was inactive: 13.9%. In the case of CNc1ccccc1C(C)(C)c1cc(-c2cccc([N+](=O)[O-])c2)no1, the Potency was inconclusive [inhibitor, full curve, poor fit]. For Cc1c(C(=O)NC2CCOC2)oc2c(F)cccc12 (stereo not given), the “activity change, negative = inhibition” value was inactive: -2.05%. With O=C(c1noc2c1CCCCC2)N1CCOCC1 the Potency was inconclusive [inhibitor, full curve, poor fit]. With CCOc1ccc(S(=O)(=O)n2nnc3ccccc32)cc1C the Potency was inconclusive [inhibitor, full curve, poor fit]. For Cc1ccc(NC(=O)Cn2nc(-c3ccccc3)nc2-c2ccccc2)c(C)c1, the Potency was inconclusive [inhibitor, single point]. For Cc1ccc(S(=O)(=O)N(C)CC(=O)O/N=C(\N)c2ccccn2)cc1, the “activity change, negative = inhibition” value was inactive: 5.05%. Cc1ccc2nsnc2c1NC(=O)c1ccc([N+](=O)[O-])cc1 was tested, and the Potency was inconclusive [inhibitor, single point].
Note: nearly all actives have a fitted effect of over 25% in size.
Potency is the fitted concentration of half-maximal effect; tags give direction and shape of the fitted curve.
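Throughout, for activity change, negative = inhibition: 0% = no-compound wells and -100% = no-enzyme wells.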
